Results taken from paper PMC6919601, “Identification of Plasmodium dipeptidyl aminopeptidase allosteric inhibitors by high throughput screening” (PLoS ONE, 2019).
The campaign covered roughly 110,000 compounds. About 230 (0.21%) showed an effect of 50% or more. The list shows a part of the results.

Each molecule was assayed against DPAP1 (Plasmodium falciparum, UniProt Q8IIJ9) (assay: primary screen, percent inhibition; read by cleavage of a fluorogenic dipeptide substrate; higher = more effect of the substance).
Design: species or system P. falciparum D10 trophozoite lysates; single well
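Note: 30 min substrate incubation versus DMSO and 10 µM JCP410 controls.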

Chain of DPAP1 (Q8IIJ9 whole entry, looked up): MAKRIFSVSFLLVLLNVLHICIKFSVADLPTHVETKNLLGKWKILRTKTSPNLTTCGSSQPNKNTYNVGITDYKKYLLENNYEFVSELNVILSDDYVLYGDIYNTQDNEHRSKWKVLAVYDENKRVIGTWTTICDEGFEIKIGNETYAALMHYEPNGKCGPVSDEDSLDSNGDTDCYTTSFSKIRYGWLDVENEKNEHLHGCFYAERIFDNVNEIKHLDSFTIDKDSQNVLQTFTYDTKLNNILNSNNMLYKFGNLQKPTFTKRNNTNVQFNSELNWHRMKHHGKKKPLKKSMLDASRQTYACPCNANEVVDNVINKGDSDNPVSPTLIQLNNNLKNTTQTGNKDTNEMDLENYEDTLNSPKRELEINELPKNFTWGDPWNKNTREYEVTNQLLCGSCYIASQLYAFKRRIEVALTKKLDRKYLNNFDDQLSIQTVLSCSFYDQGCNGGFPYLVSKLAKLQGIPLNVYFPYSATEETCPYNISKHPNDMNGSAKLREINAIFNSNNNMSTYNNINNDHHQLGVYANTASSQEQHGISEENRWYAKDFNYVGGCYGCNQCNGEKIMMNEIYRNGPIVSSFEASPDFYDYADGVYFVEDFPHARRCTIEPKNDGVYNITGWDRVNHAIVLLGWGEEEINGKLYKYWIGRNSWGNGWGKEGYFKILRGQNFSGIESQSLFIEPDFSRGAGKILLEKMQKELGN

SMILES | % Inhibition @ 10 uM [%]
CCCC(=O)c1cc(C(=O)CCC)c(O)c(C)c1O | 2.44
Cc1ccc(CNC(=O)CCn2cccn2)cc1 | -5.91
Fc1ccc(-c2nsc3c(N4CCNCC4)ncnc23)cc1 | -4.54
O=C1NC(=O)/C(=C\c2cccn2-c2cccc(Br)c2)S1 | -2.29
CC1CCc2c(sc3ncn4c(S)nnc4c23)C1 (centres unmarked) | -6.87
Cc1nnc(C)n1/N=C/c1ccc(C(=O)O)cc1 | 9.21
CCCOc1nc(-c2ccccc2)cc(-c2ccccc2)n1 | 3.53
Cc1ccc(N2C(=O)CC(N3CCN(C/C=C/c4ccccc4)CC3)C2=O)cc1 (centres unmarked) | -10.8
O=[N+]([O-])c1cccc(C2=Nc3ccccc3C(c3ccccc3)(c3ccccc3)O2)c1 | 1.29
O=C1c2cccc3cccc(c23)C(=O)N1Cc1ccco1 | 22.6
O=C(Nc1cccc(F)c1)NC1CCCCC1 | -0.351
CC(C)c1nc(N2CCN(C(=O)c3ccco3)CC2)c(C#N)c2c1COC(C)(C)C2 | 1.03
COc1ccc(CNCc2ccc(Br)cc2)cc1OC | -4.16
CCc1c(CN2CCC(C)CC2)csc1C | -0.716
CCc1ccc(N2CC(C(=O)Nc3ccccc3C(=O)Nc3ccccc3C)CC2=O)cc1 (centres unmarked) | 1.17
COc1ccc(OC)c(N2Cc3ccccc3C2)c1 | -4.15
N#Cc1cc2c(nc1SCC(=O)Nc1nonc1-n1cccc1)CCCC2 | 4.61
CCn1ncc(C2=NOC(C(=O)N3CCN(C(=O)c4ccco4)CC3)C2)c1C (centres unmarked) | -6.68
O=C1CC(N2CCC(Cc3ccccc3)CC2)C(=O)N1c1ccccc1 (centres unmarked) | 1.34
C=C(C)Cn1c(N2CCOCC2)nc2c1c(=O)n(C)c(=O)n2C | 0.635
CCc1cccc(NC(=O)c2ccco2)c1 | -1.42
O=C(c1cccc([N+](=O)[O-])c1)N1CCN(c2ccc(F)cc2)CC1 | -4.3
COc1ccccc1N1CCN(C2CC(=O)N(c3ccc(C)cc3Cl)C2=O)CC1 (centres unmarked) | 3.91
CCO/C(O)=C1/C(C)=Nc2nc(SCC)nn2C1c1ccccc1Cl (centres unmarked) | -5.33
CN(CC1OCCc2ccccc21)CC(c1ccccc1)c1ccccc1 (centres unmarked) | -0.902
CCCCN(Cc1ccccc1)C(=O)c1ccc2ccccc2n1 | 3.93
Cc1oc(-c2ccc(Cl)cc2)nc1CN1CCC(C(=O)NCC2CCCO2)CC1 (centres unmarked) | -2.85
CC(C)Nc1nc2c(S(=O)(=O)c3ccc(C(C)C)cc3)nnn2c2ccsc12 | 1.41
Cc1cc(C)n(C(C)CC(=O)NCCc2cccs2)n1 (centres unmarked) | -2.85
